Source: the supplement of paper PMC4604168 (melanoma cell lines)
The other results are listed elsewhere or left out. Single values are uncertain, as repeats are few or missing.

Key:
Assay in all cases: cell count relative to DMSO control; melanoma cells; higher = more viable cells
Settings in all cases: library dose: low library concentration; 72 h; first compound 0.4 µM
MZ2-MEL = tested on: MZ2-MEL
MeWo = tested on: MeWo
RPMI7951 = tested on: RPMI7951
RVH-421 = tested on: RVH-421
SkMel28 = tested on: SkMel28
SkMel2 = tested on: SkMel2
SkMel30 = tested on: SkMel30
SkMel5 = tested on: SkMel5
UACC257 = tested on: UACC257
UACC62 = tested on: UACC62
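Note: cell number obtained by counting DAPI-stained nuclei in high-throughput microscope images with image analysis software, screen run in 1,536-well plates.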

Structure (SMILES) | cell count (MZ2-MEL) [%] | cell count (MeWo) [%] | cell count (RPMI7951) [%] | cell count (RVH-421) [%] | cell count (SkMel28) [%] | cell count (SkMel2) [%] | cell count (SkMel30) [%] | cell count (SkMel5) [%] | cell count (UACC257) [%] | cell count (UACC62) [%]
Cn1sc(=O)n(Cc2ccccc2)c1=O + Cn1cncc1[C@@](N)(c1ccc(Cl)cc1)c1ccc2c(c1)c(-c1cccc(Cl)c1)cc(=O)n2C [tipifarnib] (partner dose 0.01 µM) | 96 | 107 | 89.8 | 91.6 | 91.1 | 82.4 | 96.2 | 98.6 | 83.4 | 74.5
CCCCCCCCCCCCCCCCCCOP(=O)([O-])OC1CC[N+](C)(C)CC1 [Perifosine] + NC(=O)Nc1cc(-c2cccc(F)c2)sc1C(=O)N[C@H]1CCCNC1 [AZD7762] (partner dose 0.02 µM) | 110 | 111 | 60 | 138 | 112 | 110 | 116 | 116 | 154 | 114
CCCCCCCCCCCCCCCCCCOP(=O)([O-])OC1CC[N+](C)(C)CC1 [Perifosine] + Cc1ccc(NC(=O)c2cccc(N(C)C)c2)cc1NC(=O)c1ccc(O)cc1 [ZM336372] (partner dose 2 µM) | 75.9 | 104 | 73.8 | 94 | 104 | 106 | 79.3 | 116 | 103 | 98.5
CCCCCCCCCCCCCCCCCCOP(=O)([O-])OC1CC[N+](C)(C)CC1 [Perifosine] + Oc1nc(-c2ccc(C(F)(F)F)cc2)nc2c1CSCC2 [XAV939] (partner dose 2 µM) | 102 | 115 | 63.1 | 89.2 | 83.9 | 97.6 | 112 | 82.3 | 99.8 | 88.6
CCCCCCCCCCCCCCCCCCOP(=O)([O-])OC1CC[N+](C)(C)CC1 [Perifosine] + O=C1NC(=O)/C(=C/c2ccc(-c3ccc(F)cc3O)o2)S1 [AS252424] (partner dose 1 µM) | 101 | 104 | 81.5 | 145 | 91.8 | 96.4 | 83.7 | 111 | 99.8 | 88
Cn1sc(=O)n(Cc2ccccc2)c1=O + OCCn1cc(-c2cnc3nnn(Cc4ccc5ncccc5c4)c3n2)cn1 [PF04217903] (partner dose 1 µM) | 108 | 104 | 106 | 112 | 95.8 | 94.7 | 113 | 104 | 114 | 109
Cn1sc(=O)n(Cc2ccccc2)c1=O + O=C(O)c1ccc(-c2c[nH]c3ncc(-c4ccccc4)cc23)cc1C1CCCC1 [GSK650394] (partner dose 0.16 µM) | 101 | 93.7 | 95.9 | 95.9 | 92.5 | 90.9 | 93.6 | 96.3 | 87.6 | 101
CCCCCCCCCCCCCCCCCCOP(=O)([O-])OC1CC[N+](C)(C)CC1 [Perifosine] + CN(NC(=O)CC(=O)NN(C)C(=S)c1ccccc1)C(=S)c1ccccc1 [STA4783] (partner dose 0.006 µM) | 102 | 116 | 48.5 | 87.9 | 89.2 | 101 | 104 | 114 | 93.2 | 92.1
CCCCCCCCCCCCCCCCCCOP(=O)([O-])OC1CC[N+](C)(C)CC1 [Perifosine] + COc1cc(Nc2ncc(F)c(Nc3ccc4c(n3)NC(=O)C(C)(C)O4)n2)cc(OC)c1OC [Tamatinib] (partner dose 0.4 µM) | 74.5 | 72.7 | 39.8 | 100 | 70.8 | 77.9 | 46.7 | 93 | 81.6 | 67.2
Cn1sc(=O)n(Cc2ccccc2)c1=O + C[C@@H]1CCN(C(=O)CC#N)C[C@@H]1N(C)c1ncnc2[nH]ccc12 [CP690550] (partner dose 1 µM) | 112 | 91.7 | 98.7 | 118 | 86 | 101 | 102 | 120 | 118 | 93.6
Cn1sc(=O)n(Cc2ccccc2)c1=O + COc1cc(Nc2ncc(F)c(Nc3ccc4c(n3)NC(=O)C(C)(C)O4)n2)cc(OC)c1OC [Tamatinib] (partner dose 0.4 µM) | 88.4 | 89.9 | 91 | 108 | 88.8 | 98.8 | 85.3 | 104 | 97 | 78.1
Cn1sc(=O)n(Cc2ccccc2)c1=O + CCCCCCCCCCCC1=C(O)C(=O)C=C(O)C1=O [Embelin] (partner dose 1.2 µM) | 97 | 94.8 | 87.8 | 99.1 | 82.3 | 94.7 | 100 | 101 | 117 | 85.9
Cn1sc(=O)n(Cc2ccccc2)c1=O + O=C1NC(=O)/C(=C/c2ccc(-c3ccc(F)cc3O)o2)S1 [AS252424] (partner dose 1 µM) | 98 | 89 | 95.1 | 100 | 90 | 91.3 | 100 | 105 | 92.1 | 85.1
Cn1sc(=O)n(Cc2ccccc2)c1=O + Cn1cc(/C=C2\C(=O)Nc3cccnc32)c2ccccc21 [GW441756] (partner dose 0.4 µM) | 104 | 104 | 106 | 92.8 | 84.5 | 104 | 88.3 | 68.7 | 74.4 | 87.5
C[C@@H](N)c1ccc(C(=O)Nc2ccnc3[nH]ccc23)cc1 + NC(=O)Nc1cc(-c2cccc(F)c2)sc1C(=O)N[C@H]1CCCNC1 [AZD7762] (partner dose 0.02 µM) | 87.7 | 85.1 | 77.5 | 73.1 | 63 | 111 | 155 | 81.3 | 67.2 | 78.3
C[C@@H](N)c1ccc(C(=O)Nc2ccnc3[nH]ccc23)cc1 + C=CCn1c(=O)c2cnc(Nc3ccc(N4CCN(C)CC4)cc3)nc2n1-c1cccc(C(C)(C)O)n1 [MK1775] (partner dose 0.02 µM) | 85.4 | 86 | 82.6 | 68.6 | 66.3 | 97 | 121 | 97.3 | 61.2 | 67.2
C[C@@H](N)c1ccc(C(=O)Nc2ccnc3[nH]ccc23)cc1 + Oc1cc(-c2nc(-c3ccccc3)[nH]c2-c2ccncc2)ccc1Cl [L779450] (partner dose 0.2 µM) | 54.8 | 87.8 | 81.8 | 65.1 | 62.3 | 97.2 | 98.6 | 89.2 | 73.8 | 59.7
C[C@@H](N)c1ccc(C(=O)Nc2ccnc3[nH]ccc23)cc1 + COc1ccc2c(c1)CCC1C2CCC2(C)C(NCCCCCCN3C(=O)C=CC3=O)CCC12 [U73122] (partner dose 0.4 µM) | 81.2 | 86.9 | 66.2 | 67.4 | 77 | 100 | 82.9 | 95.8 | 78.8 | 79.3
Cn1sc(=O)n(Cc2ccccc2)c1=O + Cc1cc(Nc2cc(N3CCN(C)CC3)nc(/C=C/c3ccccc3)n2)n[nH]1 [ENMD2076] (partner dose 0.04 µM) | 94 | 125 | 113 | 98.1 | 96.6 | 96.2 | 91.5 | – | – | 101
Cn1sc(=O)n(Cc2ccccc2)c1=O + COc1ccc(-c2ccc3c(N4CCOCC4)nc(N4C[C@@H](C)O[C@@H](C)C4)nc3n2)cc1CO [KU0063794] (partner dose 0.02 µM) | 92.2 | 94.2 | 77 | 140 | 109 | 99.5 | 103 | 113 | 101 | 89.3
Cn1sc(=O)n(Cc2ccccc2)c1=O + Cc1cc(N2CCOCC2)cc2[nH]c(-c3c(NC[C@@H](O)c4cccc(Cl)c4)cc[nH]c3=O)nc12 [BMS536924] (partner dose 0.2 µM) | 94.2 | 103 | 106 | 85.2 | 88.5 | 96.3 | 104 | 91.3 | 75.5 | 87.3
Cn1sc(=O)n(Cc2ccccc2)c1=O + Cc1ccc(NC(=O)c2cccc(N(C)C)c2)cc1NC(=O)c1ccc(O)cc1 [ZM336372] (partner dose 2 µM) | 87.5 | 89 | 95.2 | 93.5 | 85.6 | 114 | 74.8 | 90.5 | 83.3 | 93.3
CCCCCCCCCCCCCCCCCCOP(=O)([O-])OC1CC[N+](C)(C)CC1 [Perifosine] + O=C(CCCCCCC(=O)Nc1ccccc1)NO [vorinostat] (partner dose 0.08 µM) | 108 | 94.7 | 39.6 | 98.3 | 78.1 | 93.2 | 84.4 | 91.1 | 91.6 | 70
Cn1sc(=O)n(Cc2ccccc2)c1=O + CC(C)(C)c1cnc(CSc2cnc(NC(=O)C3CCNCC3)s2)o1 [SNS-032] (partner dose 0.01 µM) | 93.9 | 100 | 87.7 | 82.3 | 78.1 | 100 | 94 | 91.4 | 81.7 | 78.7
C[C@@H](N)c1ccc(C(=O)Nc2ccnc3[nH]ccc23)cc1 + CC(C)(C)c1cnc(CSc2cnc(NC(=O)C3CCNCC3)s2)o1 [SNS-032] (partner dose 0.01 µM) | 71.8 | 86.4 | 65.6 | 75.9 | 78.2 | 101 | 94.8 | 69.8 | 80.3 | 73
